Measurements reported in paper PMC4336329 (PLoS ONE, 2015).
The whole screen tested about 310,000 compounds, of which about 14,000 (4.5%) showed an effect of 50% or more. Effects have a minus sign here. Some of the results follow.

Biological target: human ether-à-go-go-related gene (hERG) potassium channel (human, UniProt Q12809)
Assay: primary screen, population patch clamp on CHO cells stably expressing hERG
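Note: peak tail current of the secondary pulse compared with the same well before compound.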

Chain of human ether-à-go-go-related gene (hERG) potassium channel (Q12809 whole entry, looked up): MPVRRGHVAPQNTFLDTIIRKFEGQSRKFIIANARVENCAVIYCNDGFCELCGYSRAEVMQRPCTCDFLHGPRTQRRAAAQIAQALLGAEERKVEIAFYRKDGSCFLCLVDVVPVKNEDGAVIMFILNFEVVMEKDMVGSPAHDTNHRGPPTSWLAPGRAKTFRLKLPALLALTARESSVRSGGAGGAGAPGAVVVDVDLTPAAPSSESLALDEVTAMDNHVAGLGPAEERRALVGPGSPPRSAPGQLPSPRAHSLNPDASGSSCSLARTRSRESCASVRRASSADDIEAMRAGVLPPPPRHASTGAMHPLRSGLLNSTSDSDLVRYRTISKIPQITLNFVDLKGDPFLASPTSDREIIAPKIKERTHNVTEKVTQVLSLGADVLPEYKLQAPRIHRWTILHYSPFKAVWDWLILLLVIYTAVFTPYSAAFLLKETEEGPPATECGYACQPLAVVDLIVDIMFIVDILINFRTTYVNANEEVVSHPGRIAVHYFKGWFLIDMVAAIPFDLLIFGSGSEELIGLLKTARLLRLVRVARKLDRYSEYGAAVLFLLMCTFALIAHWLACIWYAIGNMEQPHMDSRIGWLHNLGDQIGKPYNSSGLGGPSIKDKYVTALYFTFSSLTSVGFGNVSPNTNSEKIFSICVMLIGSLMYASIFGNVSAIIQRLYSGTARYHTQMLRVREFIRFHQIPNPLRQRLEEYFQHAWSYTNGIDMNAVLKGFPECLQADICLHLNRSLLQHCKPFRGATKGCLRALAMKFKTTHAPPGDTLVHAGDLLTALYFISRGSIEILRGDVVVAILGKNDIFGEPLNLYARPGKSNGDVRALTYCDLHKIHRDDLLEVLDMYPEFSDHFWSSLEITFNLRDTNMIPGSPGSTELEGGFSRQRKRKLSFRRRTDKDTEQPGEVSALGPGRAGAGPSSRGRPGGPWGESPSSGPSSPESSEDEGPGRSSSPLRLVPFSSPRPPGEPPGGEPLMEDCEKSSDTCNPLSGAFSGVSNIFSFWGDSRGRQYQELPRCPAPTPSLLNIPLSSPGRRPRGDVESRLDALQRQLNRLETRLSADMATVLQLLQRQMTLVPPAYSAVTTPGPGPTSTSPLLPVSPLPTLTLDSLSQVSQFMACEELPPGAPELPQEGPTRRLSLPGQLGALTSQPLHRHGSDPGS

Row | SMILES | hERG current change (%, negative = inhibition) at 10uM
1 | Cn1c(=O)[nH]c(=O)c2c1nc(CN1CCN(c3ccccc3F)CC1)n2CCc1ccccc1 | -13.4%
2 | O=C(NCC1CCCCC1)c1cccc(-c2ccc(O)cc2)c1 | 12.1%
3 | COc1ccc(CCC(=O)Nc2cc(Cl)ccc2OC)cc1 | -13.3%
4 | COc1ccccc1CC(=O)Nc1ccc(OC)c(OC)c1 | 13.9%
5 | Cc1nn(C)c(C)c1CN(C)S(=O)(=O)c1ccc2ccccc2c1 | -30.4%
6 | O=C1CCn2nc(-c3ccc(Cl)cc3)cc2N1 | -7.37%
7 | O=C1NC(c2ccc(Cl)cc2)Nc2ccccc21 (centres unmarked) | -23.5%
8 | O=C(CSc1ccc(C(F)(F)F)cn1)Nc1ccccc1 | -0.305%
9 | CCc1ccc(-c2cc(C)no2)cc1S(=O)(=O)N1CCN(c2ccc(F)cc2)CC1 | 7.09%
10 | Cc1cccc(OCC(=O)N2CCN(Cc3ccc4c(c3)OCO4)CC2)c1.O=C(O)C(=O)O | -16.7%
11 | O=C(CN1CCCCCC1)NCc1ccccc1 | 10.1%
12 | O=C(N/N=C/c1ccccc1[N+](=O)[O-])c1cnccn1 | 17.8%
13 | COc1cccc(/C=N/NC(=O)c2cnccn2)c1O | -17.1%
14 | O=C1NC(=O)/C(=C\c2ccc(OCc3cnc(Cl)s3)cc2)S1 | 19.9%
15 | Cc1ccc(/C=C2\SC(=S)N(c3cccnc3)C2=O)cc1 | 18.9%
16 | CCOC(=O)c1cc(-c2ccc([N+](=O)[O-])cc2)nc2c1c(=O)[nH]c(=O)n2Cc1ccccc1 | 11.9%
17 | COc1cc(-c2nnc(COc3ccc4cc(Br)ccc4c3)o2)cc(OC)c1OC | 16.2%
18 | COc1ccc(CNC(=O)C2CCN(C(=O)Cc3ccccc3)CC2)cc1 | -13.5%
19 | O=C(COc1ccc(F)cc1Cl)Nc1cccc(S(=O)(=O)N2CCCCCC2)c1 | 9.05%
20 | C/C(N)=C(/C#N)C(=O)COC(=O)CC12CC3CC(CC(C3)C1)C2 | -8.16%
21 | O=[N+]([O-])c1ccc(CSc2nnc(SCc3ccccc3)s2)cc1 | -19.2%
22 | O=C(Nc1ccc(-c2nnc(-c3ccccc3)o2)cc1)C1CCCO1 (centres unmarked) | -13.3%
23 | Cc1ccc(SC(C)C(=O)Nc2ccccc2-c2ccccc2)cc1 (centres unmarked) | 2.2%

Row | SMILES | hERG current change (%, negative = inhibition) at 10uM
24 | Cc1ccc(CNC(=O)C2CCCN(S(=O)(=O)c3c(C)noc3/C=C/N(C)C)C2)cc1 (centres unmarked) | 0.141%
25 | CCCN(CC1CC1)C(=O)CSc1ncnc2sc(C)c(C)c12 | -30.4%
26 | CCCn1c(N)c(N(CCOC)C(=O)c2ccccc2F)c(=O)[nH]c1=O | 9.64%
27 | Nc1ccc(C(=O)N/N=C/c2ccccc2)cc1 | 7.02%
28 | CC(C)c1cc(C(C)C)c(S(=O)(=O)N2CCNCC2)c(C(C)C)c1 | -0.58%
29 | COCCCn1c(=O)c2sccc2n2c(CCCC(=O)NCc3ccc(OC)cc3)nnc12 | -21%
30 | COc1ccc(Cl)cc1Nc1nc(C)nc2c1nnn2Cc1ccccc1 | 11.6%
31 | CS(=O)(=O)NCCCNc1c(Cl)cccc1[N+](=O)[O-] | -4.43%
32 | CC(C)=CCc1c(O)cc2c(c1O)C(=O)CC(c1ccccc1)O2 (centres unmarked) | 11.7%
33 | COc1ccc(CNC(=O)c2cc(SC)ccc2Cl)cc1OC | 2.15%
34 | COc1cc(OC)c2cc(C(=O)N/N=C/c3ccccc3O)[nH]c2c1 | 6.07%
35 | CCCOc1ccc(NC(=O)C2CC(=O)N3CCCN=C3S2)cc1 (centres unmarked) | -11%
36 | O=C(COC(=O)COc1ccccc1)NCc1ccco1 | -8.6%
37 | CCOC(=O)N1CCN(C(=O)C2CCC(=O)N(Cc3ccc(Cl)cc3)C2)CC1 (centres unmarked) | -40.5%
38 | Cc1[nH]c2ccccc2c1C(=O)CSC(=S)N1CCOCC1 | 9.65%
39 | COc1ccc(/C=C\C(=O)NCC(=O)N/N=C/c2ccc(O)cc2O)cc1 | 5.16%
40 | CC(C)(C)C1CCC2(CC1)NC(=S)N(c1ccccc1)N2 (centres unmarked) | -12%
41 | O=C(N/N=C/c1ccc([N+](=O)[O-])o1)c1ccncc1 | -11.2%
42 | Cc1ccc2c(c1)C(=O)c1ccccc1CS2=O (centres unmarked) | -31.2%
43 | O=C(NNC(=O)c1ccncc1)Nc1cccc([N+](=O)[O-])c1 | 14.4%
44 | N=c1c2c3c(sc2nc2n1CCCCC2)CCCC3 | -45.2%
45 | C=CCN(C(=O)c1csnn1)C(C(=O)NCc1ccc(F)cc1)c1ccccc1 (centres unmarked) | -10%
46 | COc1ccc(C)cc1S(=O)(=O)Nc1cc2c3c(c1)CC(=O)N3CCC2 | -10.2%

Row | SMILES | hERG current change (%, negative = inhibition) at 10uM
47 | Cc1cc(C)n(-c2nc3ccccc3nc2N2CCN(C(=O)c3ccc(F)cc3)CC2)n1 | -20.6%
48 | COC(=O)c1nn(-c2nc(-c3cccc(OC)c3)cc(C(F)(F)F)n2)cc1[N+](=O)[O-] | 9.02%
49 | O=C(Cn1c(=O)oc2cc(S(=O)(=O)N3CCCC3)ccc21)N1CCN(C2CCCCC2)CC1 | -7.45%
50 | S=c1[nH]nc(-c2ccc(Br)cc2)n1-c1ccc(Br)cc1 | 12.2%
51 | CC(=O)Nc1ccc(NC(=O)C(C)N(C)CC(=O)Nc2ccccc2Br)cc1 (centres unmarked) | 8.29%
52 | COc1cc(CNCc2cc(OC)c(OC)c(OC)c2)cc(OC)c1.O=C(O)C(=O)O | 1.64%
53 | O=C(Oc1ccc2ccc(O)cc2c1)C1CCCCC1 | 16.7%
54 | CSc1nc(C)cc(-n2ccc(=O)[nH]c2=O)n1 | -3.54%
55 | Cc1cc(C)n2c(SCc3ccccc3Cl)nnc2n1 | 6.96%
56 | Cc1cc(C)cc(N(CC(=O)NC2CCCCC2)C(=O)CCCC(=O)Nc2ccccn2)c1 | 3.04%
57 | COc1ccc(N2CCN(C3CCCN(Cc4ccc(F)cc4Cl)C3)CC2)cc1 (centres unmarked) | -35.2%
58 | Cc1c(Cl)c(=O)n2c(=O)c(Cl)c(C)n12 | 2.68%
59 | CC(C)c1cccc(C(C)C)c1NC(=O)CNCC(O)c1ccccc1.O=C(O)C(=O)O (centres unmarked) | 2.04%
60 | Cn1c(SCC(=O)Nc2ccc(C(N)=O)cc2)nnc1-c1cccs1 | 23.2%
61 | CC1CC2(O)c3no[n+]([O-])c3CCC2N1O (centres unmarked) | 5.85%
62 | CSc1ncc(CN2CCc3c([nH]c4ccccc34)C2C(C)(C)C)cn1 (centres unmarked) | 8.9%
63 | NNC(=S)Nc1c(F)cc(F)cc1Br | 13.9%
64 | O=C(C1COc2ccccc2O1)N1CCOCC1 (centres unmarked) | 10.5%
65 | COc1ccc(NCC(=O)N/N=C/c2ccc3c(c2)OCCO3)cc1 | 10.8%
66 | Cc1ccc(S(=O)(=O)NCC(=O)N2CCOCCOCCOCCOCC2)cc1 | 29.1%
67 | O=C(CCC(=O)N1CCOc2ccccc21)NCCc1ccccc1 | -6%
68 | COc1ccc(C(=O)Nc2cc(C)nn2-c2cccc(F)c2)cc1OC | 5.04%
69 | Cc1cn(CCC(=O)Nc2ccccc2N2CCOCC2)c2ccccc12 | -10.1%

Row | SMILES | hERG current change (%, negative = inhibition) at 10uM
70 | CC1Oc2ccccc2N(CC(=O)Nc2ccc3c(c2)OCCO3)C1=O (centres unmarked) | -5.7%
71 | COc1ccc2nc(NC(=O)CSc3nc(C)cc(=O)[nH]3)sc2c1 | 2.03%
72 | CCC(=O)Nc1ccc(N2CCCCC2)c(C(=O)Nc2ccc(OC)cc2)c1 | -3.8%
73 | CN(CC(=O)Nc1ccc(F)cc1)C(=O)CCc1nc2ccccc2c(=O)[nH]1 | 2.83%
74 | Cc1c(NCc2nc3ccccc3[nH]2)c(=O)n(-c2ccccc2)n1C.Cl | -10.9%
75 | CS(=O)(=O)N1CCN(C2CCN(Cc3ccccc3)CC2)CC1 | -1.48%
76 | c1ccc(Oc2cnc3ccccc3n2)cc1 | -12.3%
77 | CCN(CC)c1nc(C(F)(F)F)nc2c1nnn2Cc1ccccc1 | 9.26%
78 | O=C(NCc1ccc(F)cc1)c1ccc(CS(=O)(=O)Cc2ccc(F)cc2)o1 | -15.5%
79 | CN1CCC(N(C)S(=O)(=O)c2ccc(NC(=O)COc3ccc(F)cc3Cl)cc2)CC1 | 6.79%
80 | COc1ccc(C(=O)c2coc(-c3ccccc3C(=O)O)c2C(=O)O)cc1 | 14.2%
81 | O=c1ccc(S(=O)(=O)N2CCCC2)cn1Cc1ccc(F)cc1 | -13.3%
82 | O=C(Nc1ccccc1[N+](=O)[O-])c1cc(S(=O)(=O)N2CCOCC2)cs1 | 3.39%
83 | COc1ccc(N(CC(=O)O)S(=O)(=O)c2ccccc2[N+](=O)[O-])c(OC)c1 | 7.07%
84 | Cc1ccc(NC(=O)C(Cc2ccccc2)NC(=O)c2ccco2)cc1 (centres unmarked) | -3.13%
85 | COc1ccc(OC)c(CN2CCC(Cc3ccccc3)CC2)c1.O=C(O)C(=O)O | -69.4%
86 | CCc1ccc(NC(=O)CC2C(=O)NCCN2C(=S)Nc2ccccc2)cc1 (centres unmarked) | -10.8%
87 | CCC(CC)C(=O)NCc1ccccc1OC | 0.922%
88 | CCNc1cc(Nc2c(C)n(C)n(-c3ccccc3)c2=O)c([N+](=O)[O-])c2nonc12 | -3.92%
89 | Cc1ccc(NC(=O)COC(=O)c2cccc(N3C(=O)c4ccccc4C3=O)c2)cc1 | 22.3%
